± gives the standard error. Variants at the background level are over-represented here.
B1: glmS ribozyme (parent)
chain: AUAAAAGCGCCAGAACUACAGAAAUGUAGUUGACGAGGAGGAGGUUUAUCGAAUUUUCGGCGGAUGCCUCCAAA

Assays:
Conditions in all cases: with glucosamine-6-phosphate
glucosamine-6-phosphate [1] = variants of: B1; experiment: self-cleavage kobs at 40 uM GlcN6P; higher = faster cleavage; RNA array
How it was run: (§1)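 A hybridised Cy3 probe tracked barcoded ribozyme variants, transcribed in situ by E. coli RNA polymerase on sequenced MiSeq chips, at 37 °C. The variants received 40 μM to 10 mM glucosamine-6-phosphate in HEPES/KCl/Mg(OAc)2 buffer. kobs came from decay fits and kcat and KM from weighted Michaelis–Menten fits.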

glucosamine-6-phosphate [2] = variants of: B1; experiment: self-cleavage kobs at 160 uM GlcN6P; higher = faster cleavage; RNA array
How it was run: as §1

glucosamine-6-phosphate [3] = variants of: B1; experiment: self-cleavage kobs at 10000 uM GlcN6P; higher = faster cleavage; RNA array
How it was run: as §1

glucosamine-6-phosphate [4] = variants of: B1; experiment: self-cleavage kobs at 640 uM GlcN6P; higher = faster cleavage; RNA array
How it was run: as §1

glucosamine-6-phosphate [5] = variants of: B1; experiment: self-cleavage kobs at 2500 uM GlcN6P; higher = faster cleavage; RNA array
How it was run: as §1

Row | Variant | self-cleavage kobs at 40 uM GlcN6P (glucosamine-6-phosphate [1]) [s⁻¹] | self-cleavage kobs at 160 uM GlcN6P (glucosamine-6-phosphate [2]) [s⁻¹] | self-cleavage kobs at 10000 uM GlcN6P (glucosamine-6-phosphate [3]) [s⁻¹] | self-cleavage kobs at 640 uM GlcN6P (glucosamine-6-phosphate [4]) [s⁻¹] | self-cleavage kobs at 2500 uM GlcN6P (glucosamine-6-phosphate [5]) [s⁻¹]
1 | C11U G59C | < 1e-05 | < 1e-05 | < 1e-05 |  | 
2 | C11U U30C A52C | < 1e-05 |  |  |  | 
3 | C11U U46G G59U | < 1e-05 |  |  |  | 
4 | A12C A36C U54G | < 1e-05 |  |  |  | 
5 | A12C A53U C67G C70G | < 1e-05 |  |  |  | 
6 | A12C G32A A52G | < 1e-05 | < 1e-05 |  | < 1e-05 | 
7 | A12C G40U U45G A48U | < 1e-05 |  |  |  | 
8 | A12C G66U | 5.83e-05 ± 1.3e-05 | 9.73e-05 ± 1.3e-05 | 0.00133 ± 0.0002 | 0.000586 ± 6.9e-05 | 0.000865 ± 0.00014
9 | A12G A33C U45C U47G C71U | < 1e-05 |  |  |  | 
10 | A12G A42U | < 1e-05 | < 1e-05 |  |  | 
11 | A12G A52G A53G | < 1e-05 | < 1e-05 |  |  | 
12 | A12G C61U | < 1e-05 | < 1e-05 | < 1e-05 |  | 
13 | A12G G13C G32U G40A A64C | < 1e-05 |  |  |  | 
14 | A12G G29C | < 1e-05 | < 1e-05 | 0.000123 ± 1.4e-05 | 3.94e-05 ± 1.1e-05 | 4.98e-05 ± 1.3e-05
15 | A12G G41U C68A | < 1e-05 |  |  |  | 
16 | A12G G51A C67G | < 1e-05 |  | < 1e-05 |  | 
17 | A12G U31C G63A | < 1e-05 |  |  |  | 
18 | A12U A39U | 0.00122 ± 0.00014 | 0.0029 ± 0.00074 | 0.0541 ± 0.013 | 0.0129 ± 0.0047 | 0.00925 ± 0.0022
19 | A12U A48C C58G | < 1e-05 | < 1e-05 |  | < 1e-05 | 
20 | A12U A53U | 0.00177 ± 0.00024 | 0.00421 ± 0.00071 | 0.112 ± 0.036 | 0.0159 ± 0.0029 | 0.0274 ± 0.007
21 | A12U C58U G59C | < 1e-05 |  |  |  | 
22 | A12U C70G | 0.000124 ± 1.2e-05 | 0.000175 ± 2.3e-05 | 0.001 ± 0.00029 | 0.000558 ± 0.00013 | 
23 | A12U C71G | 0.000203 ± 2.3e-05 | 0.000316 ± 5.2e-05 | 0.00305 ± 0.00048 | 0.00125 ± 0.00015 | 0.000947 ± 0.00021
24 | A12U G44U | 3.83e-05 ± 8.2e-06 |  |  |  | 
25 | A12U G62C C71U | < 1e-05 |  | < 1e-05 | < 1e-05 | 
26 | A12U U47G | 0.000706 ± 0.0001 |  | 0.0118 ± 0.002 |  | 0.0123 ± 0.0039
27 | A12U U49C | < 1e-05 |  |  |  | < 1e-05

Row | Variant | self-cleavage kobs at 40 uM GlcN6P (glucosamine-6-phosphate [1]) [s⁻¹] | self-cleavage kobs at 160 uM GlcN6P (glucosamine-6-phosphate [2]) [s⁻¹] | self-cleavage kobs at 10000 uM GlcN6P (glucosamine-6-phosphate [3]) [s⁻¹] | self-cleavage kobs at 640 uM GlcN6P (glucosamine-6-phosphate [4]) [s⁻¹] | self-cleavage kobs at 2500 uM GlcN6P (glucosamine-6-phosphate [5]) [s⁻¹]
28 | G13A G32A G59A | < 1e-05 |  |  |  | 
29 | G13A G44C C61A U69G | < 1e-05 |  |  |  | 
30 | G13A G59U | < 1e-05 |  |  |  | 
31 | G13A U47C C58U C71U | < 1e-05 |  |  |  | 
32 | G13C A36C U46G C68A | < 1e-05 |  | < 1e-05 |  | 
33 | G13C A36G A39U | < 1e-05 |  |  | < 1e-05 | < 1e-05
34 | G13C G62U | < 1e-05 | < 1e-05 | < 1e-05 | < 1e-05 | < 1e-05
35 | G13C U31C A39C | < 1e-05 |  |  |  | 
36 | G13C U45C | < 1e-05 | < 1e-05 |  | < 1e-05 | < 1e-05
37 | G13C U57A | < 1e-05 | < 1e-05 |  |  | 
38 | G13U A15C G44U G60U | < 1e-05 | < 1e-05 | < 1e-05 | < 1e-05 | < 1e-05
39 | G13U A36G G62A | < 1e-05 |  |  |  | 
40 | G13U G37U U46C | < 1e-05 |  | < 1e-05 |  | 
41 | A14C A36C G63A U65C | < 1e-05 | < 1e-05 | < 1e-05 |  | 
42 | A14C A64C | < 1e-05 | < 1e-05 |  | < 1e-05 | 
43 | A14C C16A | < 1e-05 |  | 5.95e-05 ± 6.9e-06 | 2.75e-05 ± 1.3e-05 | 6.73e-05 ± 1.1e-05
44 | A14C C34U G60C | < 1e-05 |  |  |  | 
45 | A14C C58U G63U | < 1e-05 |  |  |  | 
46 | A14C G29A C61G | < 1e-05 |  | < 1e-05 |  | 
47 | A14C U31A | 0.000559 ± 0.00011 |  |  |  | 
48 | A14C U49A G63A | < 1e-05 |  |  |  | 
49 | A14G A33C | < 1e-05 |  |  |  | 
50 | A14G A39C | 0.000225 ± 3.6e-05 | 0.000699 ± 0.00017 | 0.0134 ± 0.0019 | 0.00281 ± 0.00047 | 0.00921 ± 0.0025
51 | A14G A39G | 0.004 ± 0.00057 | 0.00304 ± 0.00096 | 0.138 ± 0.052 | 0.0236 ± 0.0054 | 
52 | A14G A39G G60A C70G | < 1e-05 |  |  | < 1e-05 | 
53 | A14G C16U G41U | 0.000207 ± 7.3e-05 |  | 0.00243 ± 0.00096 |  | 

Reference: the supplement of paper PMC7125110
